# Laboratory results: patent US4452787A, “1-Substituted tricyclic quinazolinones having biological activity as tranquilizers” (Sandoz, Inc., priority 1982, dated 1984)
# System: benzodiazepine receptors
# Test: Flunitrazepam Receptor Binding Assay, FBA Test No. 1 and FBA Test No. 2 (range of both)
# Details: range represents the results when both FBA Test No. 1 and FBA Test No. 2 were employed
row,Structure (SMILES),Response - % of Control
1,"O=c1c2cc(Cl)ccc2nc2n1CCN2Cc1ccccc1Cl [Example 1, 1-(o-chlorobenzyl)-7-chloro-2,3-dihydro-imidazo[2,1-b]quinazolin-5(1H)-one]",2-3 % of Control
2,O=c1c2cc(Cl)ccc2nc2n1CCN2c1ccc(F)cc1 [Example 3A],8-18 % of Control
3,O=c1c2cc(Cl)ccc2nc2n1CCCN2Cc1ccccc1 [Example 4A],1-2.6 % of Control
